The results in this text go back to publication PMC11995724, “Antibiotic target discovery by integrated phenotypic and activity-based profiling of electrophilic fragments” (Cell chemical biology, 2025).

About 110 (3.4%) of roughly 3,200 compounds showed an effect of 50% or more. The list shows a part of the results.

For the experiment, the system named is T1, V. cholerae SAD30.
T1 construct: SAD30
Also on record: species or system S. aureus MSSA476 (TSB) or V. cholerae SAD30 (LB); 384-well bacterial growth screen at 25 uM, OD600 relative to DMSO control. The conditions noted are these: relative growth, OD600, LB; 25 µM; inhibitor.
With `CC(Cl)C(=O)NCc1nc2c(s1)CC(c1ccccc1)CC2` (stereo not drawn) [7-A05, 2-chloro-N-[(6-phenyl-4,5,6,7-tetrahydro-1,3-benzothiazol-2-yl)methyl]propanamide], the “% of control remaining” value was 77.7135%. On to `N#CC(=Cc1ccc(F)cc1)C(=O)NCCc1cccc(Cl)c1` [8-K06, N-[2-(3-chlorophenyl)ethyl]-2-cyano-3-(4-fluorophenyl)prop-2-enamide], for which the “% of control remaining” value is given as 57.9878%. Take `C=CC(=O)Nc1ccc(-c2nnnn2C)cc1` [2-F18, N-[4-(1-methyl-1H-1,2,3,4-tetrazol-5-yl)phenyl]prop-2-enamide]: the “% of control remaining” value came out at 90.9679%. The value for `C=CC(=O)N[C@H]1CCO[C@@H]1c1ccnn1C(C)C` (racemic) [3-K05, rac-N-[(2R,3R)-2-[1-(propan-2-yl)-1H-pyrazol-5-yl]oxolan-3-yl]prop-2-enamide] was 98.7943%. Regarding `CC(=O)N(C)Cc1ccc(C(=O)CCl)cc1` [10-H04, N-{[4-(2-chloroacetyl)phenyl]methyl}-N-methylacetamide], the “% of control remaining” value was found to be 100.682%.

Regarding `CC1CCN(Cc2csc(NC(=O)CCl)n2)CC1.Cl` [6-E17, 2-chloro-N-{4-[(4-methylpiperidin-1-yl)methyl]-1,3-thiazol-2-yl}acetamide hydrochloride], the “% of control remaining” value is recorded as 88.1221%. The value for `C=CC(=O)NCC(C)(C)Cn1cccn1` [1-J04, N-[2,2-dimethyl-3-(1H-pyrazol-1-yl)propyl]prop-2-enamide] was 59.1266%; that for `CC(Cl)C(=O)NC1CC(C)N(c2ccccc2)C1` (stereo not drawn) [6-L15, 2-chloro-N-(5-methyl-1-phenylpyrrolidin-3-yl)propanamide] was 87.0604%. For the compound `O=C(CCl)N1CCOCC1c1noc(-c2ccccc2)n1` (stereo not drawn) [5-E10, 2-chloro-1-[3-(5-phenyl-1,2,4-oxadiazol-3-yl)morpholin-4-yl]ethan-1-one], the “% of control remaining” value turned out to be 96.8372%.

Take `Cn1c(CNC=C(C#N)C(=O)Nc2ccccc2)cc(=O)n(C)c1=O` [9-G21, 2-cyano-3-{[(1,3-dimethyl-2,6-dioxo-1,2,3,6-tetrahydropyrimidin-4-yl)methyl]amino}-N-phenylprop-2-enamide]: the “% of control remaining” value worked out at 88.5792%. The value for `C=CC(=O)N[C@H]1CCCC[C@H]1c1ccnn1C` (racemic) [2-G18, rac-N-[(1R,2S)-2-(1-methyl-1H-pyrazol-5-yl)cyclohexyl]prop-2-enamide] was 92.975%. In the case of `CCOc1ccc(C(=O)C(C)Cl)cc1` (stereo not drawn) [10-G06, 2-chloro-1-(4-ethoxyphenyl)propan-1-one], the “% of control remaining” value was determined as 103.331%.
